This is a selection; strong and weak results do not stand in their true shares. The list includes weakly bound sequences.
Key:
GST-Co-NF-kB = target: T1, GST-Co-NF-kB (UniProt F1ARL5); experiment: protein-binding microarray (PBM); details: PBM: ~300 nM protein, 6 mM HEPES pH 7.8, 80 mM KCl, 0.5 mM EDTA, 0.5 mM EGTA, 6% glycerol, 35 ng/ul poly-dIdC, 1% milk, 1 h, room temperature; high values mean tight binding; double strand, one strand shown
T1 sequence: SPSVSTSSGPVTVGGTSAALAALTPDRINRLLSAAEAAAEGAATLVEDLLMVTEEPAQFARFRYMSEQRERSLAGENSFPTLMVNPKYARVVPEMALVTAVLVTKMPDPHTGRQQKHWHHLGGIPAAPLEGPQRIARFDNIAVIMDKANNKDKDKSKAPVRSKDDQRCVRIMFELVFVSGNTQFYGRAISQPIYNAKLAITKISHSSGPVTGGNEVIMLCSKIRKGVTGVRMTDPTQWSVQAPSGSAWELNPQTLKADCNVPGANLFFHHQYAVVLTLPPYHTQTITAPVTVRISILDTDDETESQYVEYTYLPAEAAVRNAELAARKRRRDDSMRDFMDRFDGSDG

GST-Dm-Relish = target: T2, GST-Dm-Relish (UniProt Q94527); experiment: protein-binding microarray (PBM); details: PBM: ~300 nM protein, 6 mM HEPES pH 7.8, 80 mM KCl, 0.5 mM EDTA, 0.5 mM EGTA, 6% glycerol, 35 ng/ul poly-dIdC, 1% milk, 1 h, room temperature; Ap Aiptasia and Nv Nematostella (sea anemones) / Co Capsaspora / Aq Amphimedon (sponge) / Dm Drosophila / Hu human; RHD is the Rel homology domain; high values mean tight binding; most listed sequences are background and not binding sites; double strand, one strand shown
T2 sequence: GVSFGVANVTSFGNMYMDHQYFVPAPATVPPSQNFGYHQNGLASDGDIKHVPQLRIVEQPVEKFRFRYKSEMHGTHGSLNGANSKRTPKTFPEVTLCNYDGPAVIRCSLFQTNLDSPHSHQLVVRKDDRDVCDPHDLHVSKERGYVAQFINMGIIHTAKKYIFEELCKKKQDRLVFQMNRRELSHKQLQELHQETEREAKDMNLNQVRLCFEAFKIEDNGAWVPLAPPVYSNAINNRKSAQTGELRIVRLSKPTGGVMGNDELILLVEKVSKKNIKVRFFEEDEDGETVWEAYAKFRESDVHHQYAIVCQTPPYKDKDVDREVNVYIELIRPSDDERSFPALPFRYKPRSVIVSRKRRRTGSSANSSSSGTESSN

Row | Sequence | binding signal (GST-Co-NF-kB) [z-score] | binding signal (GST-Dm-Relish) [z-score]
1 | CCGATTAACATCAAAAAACTACCTGATGTTAATCGGGTCTTGATTCGCTTGACGCTGCTG | 0.454 | 
2 | CCGATTAACATCAGGGACTTTACTGATGTTAATCGGGTCTTGATTCGCTTGACGCTGCTG | 0.561 | 
3 | CCGATTAACATCACGGCATTCCCTGATGTTAATCGGGTCTTGATTCGCTTGACGCTGCTG | 1.73 | 
4 | CCGATTAACATCAACAAATCCCCTGATGTTAATCGGGTCTTGATTCGCTTGACGCTGCTG | 4.14 | 
5 | CCGATTAACATCAGAAATGCCCCTGATGTTAATCGGGTCTTGATTCGCTTGACGCTGCTG | 1.98 | 
6 | CCGATTAACATCAGGACTATCCCTGATGTTAATCGGGTCTTGATTCGCTTGACGCTGCTG | 0.561 | 
7 | CCGATTAACATCAGGGGGAGTAATGATGTTAATCGGGTCTTGATTCGCTTGACGCTGCTG | 6.83 | 
8 | CCGATTAACATCAACCACCCCCCTGATGTTAATCGGGTCTTGATTCGCTTGACGCTGCTG | 4.22 | 
9 | CCGATTAACATCAAGGGACTTCCTGATGTTAATCGGGTCTTGATTCGCTTGACGCTGCTG | 1.07 | 
10 | CCGATTAACATCAGGGGGATAGATGATGTTAATCGGGTCTTGATTCGCTTGACGCTGCTG | 5.41 | 
11 | CCGATTAACATCAATTTTTCCCCTGATGTTAATCGGGTCTTGATTCGCTTGACGCTGCTG | 11.2 | 
12 | CCGATTAACATCAAATTTCCCCGTGATGTTAATCGGGTCTTGATTCGCTTGACGCTGCTG | 9.87 | 
13 | CCGATTAACATCAGATTTCCCACTGATGTTAATCGGGTCTTGATTCGCTTGACGCTGCTG | 3.15 | 
14 | CCGATTAACATCAGGAAAGTACCTGATGTTAATCGGGTCTTGATTCGCTTGACGCTGCTG | -0.479 | 
15 | CCGATTAACATCAGGGGGTGGGATGATGTTAATCGGGTCTTGATTCGCTTGACGCTGCTG | 3.22 | 
16 | CCGATTAACATCAGGTAATTACCTGATGTTAATCGGGTCTTGATTCGCTTGACGCTGCTG | -0.14 | 
17 | CCGATTAACATCAGGGAGTTTACTGATGTTAATCGGGTCTTGATTCGCTTGACGCTGCTG | 1.37 | 
18 | CCGATTAACATCAGGTAATTCCATGATGTTAATCGGGTCTTGATTCGCTTGACGCTGCTG | 0.673 | 
19 | CCGATTAACATCAGGTGTTTCCATGATGTTAATCGGGTCTTGATTCGCTTGACGCTGCTG | -0.357 | 
20 | CCGATTAACATCAGGGCATACCCTGATGTTAATCGGGTCTTGATTCGCTTGACGCTGCTG | 0.562 | 
21 | CCGATTAACATCAGGGAGAGCCCTGATGTTAATCGGGTCTTGATTCGCTTGACGCTGCTG | 0.795 | 
22 | CCGATTAACATCAAATATACCCCTGATGTTAATCGGGTCTTGATTCGCTTGACGCTGCTG | 5.87 | 
23 | CCGATTAACATCAGAGTTTTCCCTGATGTTAATCGGGTCTTGATTCGCTTGACGCTGCTG | 4.75 | 

Row | Sequence | binding signal (GST-Co-NF-kB) [z-score] | binding signal (GST-Dm-Relish) [z-score]
24 | CCGATTAACATCAGGGGATCTACTGATGTTAATCGGGTCTTGATTCGCTTGACGCTGCTG | 1.96 | 
25 | CCGATTAACATCAGGAATCCCTATGATGTTAATCGGGTCTTGATTCGCTTGACGCTGCTG | 0.587 | 
26 | CCGATTAACATCAGAAGTTTCCCTGATGTTAATCGGGTCTTGATTCGCTTGACGCTGCTG | 5.14 | 
27 | CCGATTAACATCAGGGTATTCCATGATGTTAATCGGGTCTTGATTCGCTTGACGCTGCTG | 1.19 | 
28 | CCGATTAACATCAAAAAATCACCTGATGTTAATCGGGTCTTGATTCGCTTGACGCTGCTG | 1 | 8.12
29 | CCGATTAACATCATGGGGACGACTGATGTTAATCGGGTCTTGATTCGCTTGACGCTGCTG | 2.39 | 0.574
30 | CCGATTAACATCAGGGAAGGACCTGATGTTAATCGGGTCTTGATTCGCTTGACGCTGCTG | 0.763 | 4.44
31 | CCGATTAACATCAGGGGGGGATATGATGTTAATCGGGTCTTGATTCGCTTGACGCTGCTG | 5.9 | 4.91
32 | CCGATTAACATCATGGTGGGAAATGATGTTAATCGGGTCTTGATTCGCTTGACGCTGCTG | 2.94 | 0.874
33 | CCGATTAACATCAAAAAAATACCTGATGTTAATCGGGTCTTGATTCGCTTGACGCTGCTG | 0.433 | 5.83
34 | CCGATTAACATCACGGGGGAAACTGATGTTAATCGGGTCTTGATTCGCTTGACGCTGCTG | 12.2 | 3.91
35 | CCGATTAACATCATAATTCCCCATGATGTTAATCGGGTCTTGATTCGCTTGACGCTGCTG | 6.68 | 4.84
36 | CCGATTAACATCAATCCTCCCCCTGATGTTAATCGGGTCTTGATTCGCTTGACGCTGCTG | 8.24 | 2.9
37 | CCGATTAACATCAGGCACTTCCCTGATGTTAATCGGGTCTTGATTCGCTTGACGCTGCTG | -0.0599 | 0.121
38 | CCGATTAACATCATGCCCGGGAATGATGTTAATCGGGTCTTGATTCGCTTGACGCTGCTG | 3.51 | 0.38
39 | CCGATTAACATCAGGGGCGGGAATGATGTTAATCGGGTCTTGATTCGCTTGACGCTGCTG | 3.85 | 2.49
40 | CCGATTAACATCAGGGGATATTATGATGTTAATCGGGTCTTGATTCGCTTGACGCTGCTG | 4.65 | 6.28
41 | CCGATTAACATCAACAAAGTCCCTGATGTTAATCGGGTCTTGATTCGCTTGACGCTGCTG | 0.949 | 5.26
42 | CCGATTAACATCACGGGACATACTGATGTTAATCGGGTCTTGATTCGCTTGACGCTGCTG | 0.882 | 1.8
43 | CCGATTAACATCAAAATCTCCCCTGATGTTAATCGGGTCTTGATTCGCTTGACGCTGCTG | 7.3 | 4.44
44 | CCGATTAACATCAGAAATCCCGCTGATGTTAATCGGGTCTTGATTCGCTTGACGCTGCTG | 1.57 | 4.94
45 | CCGATTAACATCAAGGGGTTTCCTGATGTTAATCGGGTCTTGATTCGCTTGACGCTGCTG | 0.91 | 7.98

Source: paper PMC5700166
